Data on 4 compounds can be found in patent US11542275B2, “Substituted imidazolidin-2-one derivatives as PRMT5 inhibitors” (Aurigene Discovery Technologies Limited, priority 2018, dated 2023).

One assay deals with PRMT5/MEP50 Complex (Homo sapiens (Human), UniProt O14744). Briefly: PRMT5 inhibition based on TR-FRET assay. Conditions: 32 nM PRMT5:MEP50 complex, 50 nM Histone-H4 peptide, 1 μM SAM, 90 minutes at room temperature. It is filed as biochemical. An excerpt:
Protein arginine methyltransferase 5 (PRMT5) is a type II arginine methyltransferase that catalyze mono- and symmetric demethylation on arginine residues of histone or non-histone proteins in presence of S-adenosylmethionine (AdoMet or SAM) a cofactor responsible for donating the methyl group. PRMT5 is reported to be overexpressed in several human cancers. To identify compounds that inhibit the PRMT5 and decrease its activity, a TR-FRET based assay has been established. Time-resolved fluorescence resonance energy transfer (TR-FRET) HTS assays are homogeneous proximity assays where the interaction of two dye-labeled binding partners is detected by the energy transfer between a donor and an acceptor dye, and the subsequent light emission by the acceptor dye. PRMT5 catalyzes Histone H4 peptide which is biotin tagged to the Lysine amino acid at carboxyl end, in presence of S-adenosyl-1-methionine (SAM) to methylate the peptide. The antibody specific to mono methylated H4 peptide (H4R3) with Ig conjugate binds to the methylated peptide, indirectly binding to the Europium lanthanide. […]
The compound dilutions were prepared as 7.5% DMSO stock solutions in assay buffer. […] The plates were then read on Victor-3 with Excitation at 340 nm and Emissions collected at 615 and 665 nm in TR-FRET protocol. […]
On the technique in general: Time-resolved FRET reads energy transfer from a long-lived donor to a nearby acceptor.

Another assay concerns Z138 cells. Briefly: Z138 cell proliferation assay (XTT). Particulars: Homo sapiens, Z-138, 168 h, 7 day treatment, 9-point dose response starting with 10 μM, XTT read at 465 nm. It is filed as cell-based. The method, then:
Z138 cells were seeded in a 96-well round-bottom plate and treated with varying concentration of compound. The final DMSO concentration was maintained at 0.05%. The selected compounds of present invention were screened in a 9-point dose response format starting with 10 μM and 1/3rd serial dilution. On the 4th day, cells were spun down and media was replaced while maintaining the initial compound concentration in each well. At the end of the 7th day, cells were spun down and media was aspirated. 50 µL of XTT containing media was added to the wells. The plates were read using the M3 spectrophotometer at 465 nm. GI50 values were calculated by fitting the dose response data to sigmoidal curve fitting equation using GraphPad Prism software V7.
The compounds were screened in the above mentioned assay procedures for determining IC50 and GI50 values in inhibiting PRMT5.

The IC50 is the point on the concentration scale where inhibition reaches its midpoint. On PRMT5/MEP50 Complex, `O=C1N(Cc2ccc(C3CCOCC3)cn2)CCN1C[C@@H](O)CNC1Cc2ccccc2C1` [Compound 90, (S)-1-(3-((2,3-dihydro-1H-inden-2-yl)amino)-2-hydroxypropyl)-3-((5-(tetrahydro-2H-pyran-4-yl)pyridin-2-yl)methyl)imidazolidin-2-one] came in with an IC50 of 285 nM.

By GI50 is commonly meant the concentration giving 50% growth inhibition. Low readings indicate greater sensitivity of the cells, high ones lower sensitivity of the cells. For the compound `CC(C)(C(=O)O)C1CCN(c2ccc(CN3CCN(C[C@H](O)CN4CCc5ccccc5C4)C3=O)nc2)CC1` [Compound 14, (R)-2-(1-(6-((3-(3-(3,4-dihydroisoquinolin-2(1H)-yl)-2-hydroxypropyl)-2-oxoimidazolidin-1-yl)methyl)pyridin-3-yl)piperidin-4-yl)-2-methylpropanoic acid], in the assay on Z138 cells, the concentration for 50% growth inhibition (GI50) is greater than 300 nM.

On to `O=C1N(Cc2cnc(-c3cccnc3)cn2)CCN1C[C@H](O)CN1CCc2ccccc2C1` [Compound 37, (R)-1-(3-(3,4-dihydroisoquinolin-2(1H)-yl)-2-hydroxypropyl)-3-((5-(pyridin-3-yl)pyrazin-2-yl)methyl)imidazolidin-2-one], for which, in the assay on Z138 cells, the concentration for 50% growth inhibition (GI50) is greater than 300 nM.

`O=C1N(Cc2ncc(N3C4CCC3COC4)cc2F)CCN1C[C@H](O)CN1CCc2ccccc2C1` [Compound 30, 1-((5-(3-oxa-8-azabicyclo[3.2.1]octan-8-yl)-3-fluoropyridin-2-yl)methyl)-3-((R)-3-(3,4-dihydroisoquinolin-2(1H)-yl)-2-hydroxypropyl)imidazolidin-2-one] had a GI50 in the assay on Z138 cells of less than 100 nM.
